No constants are given. Whether binding was seen depends on the method and setting. Some entries that bind do so weakly or less than the wild type. For some assays here: Tags and fused reporters may be left off the sequences shown.

Among the data in article PMC6900781 are binding values, retold here.

The target in test [1] is T1, GFP-LacI-dCENP-C (Drosophila melanogaster), Q9VHP9.
T1 chain: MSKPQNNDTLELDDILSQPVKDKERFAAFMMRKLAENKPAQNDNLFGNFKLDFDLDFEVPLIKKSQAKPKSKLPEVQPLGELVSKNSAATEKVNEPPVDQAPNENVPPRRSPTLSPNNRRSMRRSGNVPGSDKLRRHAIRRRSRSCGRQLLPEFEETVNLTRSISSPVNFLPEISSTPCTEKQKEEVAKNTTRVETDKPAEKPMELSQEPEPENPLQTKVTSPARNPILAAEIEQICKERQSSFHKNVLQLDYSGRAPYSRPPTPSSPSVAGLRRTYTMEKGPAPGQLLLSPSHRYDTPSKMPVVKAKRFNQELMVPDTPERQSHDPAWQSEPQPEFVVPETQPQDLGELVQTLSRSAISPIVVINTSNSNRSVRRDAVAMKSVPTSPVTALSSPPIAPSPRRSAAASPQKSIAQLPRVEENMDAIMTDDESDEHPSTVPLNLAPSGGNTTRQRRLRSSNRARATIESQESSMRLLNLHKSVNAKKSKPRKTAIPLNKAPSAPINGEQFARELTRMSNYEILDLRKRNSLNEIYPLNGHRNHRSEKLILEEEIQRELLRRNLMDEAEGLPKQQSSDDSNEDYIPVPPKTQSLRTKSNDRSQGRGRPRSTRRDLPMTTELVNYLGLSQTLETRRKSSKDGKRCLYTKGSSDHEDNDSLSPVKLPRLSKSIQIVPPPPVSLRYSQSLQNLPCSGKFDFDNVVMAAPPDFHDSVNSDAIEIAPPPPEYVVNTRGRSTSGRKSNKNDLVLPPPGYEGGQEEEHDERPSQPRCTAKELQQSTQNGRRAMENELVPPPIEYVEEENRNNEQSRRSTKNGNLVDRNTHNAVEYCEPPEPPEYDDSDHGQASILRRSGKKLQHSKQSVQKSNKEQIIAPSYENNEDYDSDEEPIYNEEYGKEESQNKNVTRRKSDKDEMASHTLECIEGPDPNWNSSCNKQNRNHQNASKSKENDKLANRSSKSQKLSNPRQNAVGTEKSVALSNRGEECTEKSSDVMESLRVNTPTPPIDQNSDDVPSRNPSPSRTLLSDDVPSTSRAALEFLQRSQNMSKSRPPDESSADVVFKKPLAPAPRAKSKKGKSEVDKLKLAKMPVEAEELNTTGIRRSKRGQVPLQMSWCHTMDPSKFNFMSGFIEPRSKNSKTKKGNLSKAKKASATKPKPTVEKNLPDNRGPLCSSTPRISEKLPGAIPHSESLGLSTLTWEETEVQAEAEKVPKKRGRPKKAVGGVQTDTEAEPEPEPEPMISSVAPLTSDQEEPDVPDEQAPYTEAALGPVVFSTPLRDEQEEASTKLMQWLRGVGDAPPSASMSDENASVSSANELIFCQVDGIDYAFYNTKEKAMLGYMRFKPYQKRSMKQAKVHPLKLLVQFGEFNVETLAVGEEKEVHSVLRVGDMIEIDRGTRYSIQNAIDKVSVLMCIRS
Kind of test: LacI/LacO tethering and recruitment assay (immunofluorescence); bait fused to GFP-LacI tethered to chromosomal LacO arrays in human U2OS cells; HA- or V5-tagged prey transiently co-expressed; IF 48 h after transfection, prey intensity at the LacO spot or % of cells; no third Drosophila centromere protein co-expressed. To be noted: remark: other sources report otherwise.

For test [2], the target named is T2, recombinant CAL1(1-160) (Drosophila melanogaster), Q9VEN2.
T2 chain: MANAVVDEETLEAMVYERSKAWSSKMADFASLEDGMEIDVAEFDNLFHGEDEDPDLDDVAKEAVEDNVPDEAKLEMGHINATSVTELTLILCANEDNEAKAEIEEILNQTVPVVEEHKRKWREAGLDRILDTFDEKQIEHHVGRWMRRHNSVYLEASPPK
Kind of test: SEC-MALS; recombinant proteins; Superdex 200 10/300 Increase GL, 50 mM HEPES pH 8.0, 150 or 300 mM NaCl, 1 mM TCEP, 22°C, 100 μl of 1-5 mg/ml; both purified. Conditions: remark: other sources report otherwise. (In general: In gel filtration, larger molecules generally elute earlier.)

B1: HA-dCENP-C, Q9VHP9 1-1411 (natural protein)
chain: MSKPQNNDTLELDDILSQPVKDKERFAAFMMRKLAENKPAQNDNLFGNFKLDFDLDFEVPLIKKSQAKPKSKLPEVQPLGELVSKNSAATEKVNEPPVDQAPNENVPPRRSPTLSPNNRRSMRRSGNVPGSDKLRRHAIRRRSRSCGRQLLPEFEETVNLTRSISSPVNFLPEISSTPCTEKQKEEVAKNTTRVETDKPAEKPMELSQEPEPENPLQTKVTSPARNPILAAEIEQICKERQSSFHKNVLQLDYSGRAPYSRPPTPSSPSVAGLRRTYTMEKGPAPGQLLLSPSHRYDTPSKMPVVKAKRFNQELMVPDTPERQSHDPAWQSEPQPEFVVPETQPQDLGELVQTLSRSAISPIVVINTSNSNRSVRRDAVAMKSVPTSPVTALSSPPIAPSPRRSAAASPQKSIAQLPRVEENMDAIMTDDESDEHPSTVPLNLAPSGGNTTRQRRLRSSNRARATIESQESSMRLLNLHKSVNAKKSKPRKTAIPLNKAPSAPINGEQFARELTRMSNYEILDLRKRNSLNEIYPLNGHRNHRSEKLILEEEIQRELLRRNLMDEAEGLPKQQSSDDSNEDYIPVPPKTQSLRTKSNDRSQGRGRPRSTRRDLPMTTELVNYLGLSQTLETRRKSSKDGKRCLYTKGSSDHEDNDSLSPVKLPRLSKSIQIVPPPPVSLRYSQSLQNLPCSGKFDFDNVVMAAPPDFHDSVNSDAIEIAPPPPEYVVNTRGRSTSGRKSNKNDLVLPPPGYEGGQEEEHDERPSQPRCTAKELQQSTQNGRRAMENELVPPPIEYVEEENRNNEQSRRSTKNGNLVDRNTHNAVEYCEPPEPPEYDDSDHGQASILRRSGKKLQHSKQSVQKSNKEQIIAPSYENNEDYDSDEEPIYNEEYGKEESQNKNVTRRKSDKDEMASHTLECIEGPDPNWNSSCNKQNRNHQNASKSKENDKLANRSSKSQKLSNPRQNAVGTEKSVALSNRGEECTEKSSDVMESLRVNTPTPPIDQNSDDVPSRNPSPSRTLLSDDVPSTSRAALEFLQRSQNMSKSRPPDESSADVVFKKPLAPAPRAKSKKGKSEVDKLKLAKMPVEAEELNTTGIRRSKRGQVPLQMSWCHTMDPSKFNFMSGFIEPRSKNSKTKKGNLSKAKKASATKPKPTVEKNLPDNRGPLCSSTPRISEKLPGAIPHSESLGLSTLTWEETEVQAEAEKVPKKRGRPKKAVGGVQTDTEAEPEPEPEPMISSVAPLTSDQEEPDVPDEQAPYTEAALGPVVFSTPLRDEQEEASTKLMQWLRGVGDAPPSASMSDENASVSSANELIFCQVDGIDYAFYNTKEKAMLGYMRFKPYQKRSMKQAKVHPLKLLVQFGEFNVETLAVGEEKEVHSVLRVGDMIEIDRGTRYSIQNAIDKVSVLMCIRS
B1: in test [1], the binding result was “binds”.

B2: recombinant CAL1(1-160), Q9VEN2 1-160 (domain or fragment)
chain: MANAVVDEETLEAMVYERSKAWSSKMADFASLEDGMEIDVAEFDNLFHGEDEDPDLDDVAKEAVEDNVPDEAKLEMGHINATSVTELTLILCANEDNEAKAEIEEILNQTVPVVEEHKRKWREAGLDRILDTFDEKQIEHHVGRWMRRHNSVYLEASPPK
Take B2: in test [2], the binding entry is recorded as “no binding”.
